From the supplement of paper PMC4604168 (melanoma cell lines)
Some of the results follow. Most values come without repeats; read them as rough.

These molecules were tested on WM3619 (assay: cell count relative to DMSO control; melanoma cells; higher = more viable cells). Conditions: library dose: standard library concentration; 72 h.
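Also: cells treated in 1,536-well plates, then fixed and DAPI-stained, with nuclei counted from automated high-throughput microscope images.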

SMILES | cell count
CCCCCCCCc1ccc(CCC(N)(CO)CO)cc1 [fingolimod] + C=C(c1ccc(C(=O)O)cc1)c1cc2c(cc1C)C(C)(C)CCC2(C)C [Bexarotene] (first compound 10 µM, partner dose 10 µM) | 3.39%
NC(=O)c1ccc(N(C(N)=O)c2c(F)cccc2F)nc1-c1ccc(F)cc1F + C[C@]1(O)C[C@@H](c2nc(-c3ccc4ccc(-c5ccccc5)nc4c3)c3c(N)nccn32)C1 [OSI906] (first compound 2 µM, partner dose 2 µM) | 83%
NC(=O)c1ccc(N(C(N)=O)c2c(F)cccc2F)nc1-c1ccc(F)cc1F + CNC(=O)c1cc(Oc2ccc(NC(=O)Nc3ccc(Cl)c(C(F)(F)F)c3)cc2)ccn1 [sorafenib] (first compound 2 µM, partner dose 2 µM) | 76.8%
NC(=O)c1ccc(N(C(N)=O)c2c(F)cccc2F)nc1-c1ccc(F)cc1F + O=C(O)C(=O)Nc1sc2c(c1C(=O)O)CCNC2 [TCS401] (first compound 2 µM, partner dose 8.33333 µM) | 93.6%
CCCCCCCCc1ccc(CCC(N)(CO)CO)cc1 [fingolimod] + Nc1cccc2c1CN(C1CCC(=O)NC1=O)C2=O [lenalidomide] (first compound 10 µM, partner dose 5 µM) | 1.76%
NC(=O)c1ccc(N(C(N)=O)c2c(F)cccc2F)nc1-c1ccc(F)cc1F + Cc1cc(Nc2cc(N3CCN(C)CC3)nc(/C=C/c3ccccc3)n2)n[nH]1 [ENMD2076] (first compound 2 µM, partner dose 0.2 µM) | 96%

The molecules below were run on WM451Lu in the same assay as above. Conditions: library dose: standard library concentration; 72 h.

SMILES | cell count
NC(=O)c1ccc(N(C(N)=O)c2c(F)cccc2F)nc1-c1ccc(F)cc1F + C#Cc1cccc(Nc2ncnc3cc(OCCOC)c(OCCOC)cc23)c1 [erlotinib] (first compound 2 µM, partner dose 4 µM) | 80.1%
NC(=O)c1ccc(N(C(N)=O)c2c(F)cccc2F)nc1-c1ccc(F)cc1F + CC(=O)O[C@@]12CO[C@@H]1C[C@H](O)[C@@]1(C)C(=O)[C@H](O)C3=C(C)[C@@H](OC(=O)[C@H](O)[C@@H](NC(=O)OC(C)(C)C)c4ccccc4)C[C@@](O)([C@@H](OC(=O)c4ccccc4)[C@H]21)C3(C)C [Docetaxel] (first compound 2 µM, partner dose 0.0005 µM) | 34.4%
CCCCCCCCc1ccc(CCC(N)(CO)CO)cc1 [fingolimod] + CO[C@H]1C[C@@H]2CC[C@@H](C)[C@@](O)(O2)C(=O)C(=O)N2CCCC[C@H]2C(=O)O[C@H]([C@H](C)C[C@@H]2CC[C@@H](OCCO)[C@H](OC)C2)CC(=O)[C@H](C)/C=C(\C)[C@@H](O)[C@@H](OC)C(=O)[C@H](C)C[C@H](C)/C=C/C=C/C=C/1C [everolimus] (first compound 10 µM, partner dose 0.1 µM) | 6.74%
NC(=O)c1ccc(N(C(N)=O)c2c(F)cccc2F)nc1-c1ccc(F)cc1F + O=C(O)c1ccc2c(c1)nc(Nc1cccc(Cl)c1)c1ccncc12 [CX4945] (first compound 2 µM, partner dose 2 µM) | 87.7%
NC(=O)c1ccc(N(C(N)=O)c2c(F)cccc2F)nc1-c1ccc(F)cc1F + CN1CCN(c2ccc3nc(-c4c(N)c5c(F)cccc5[nH]c4=O)[nH]c3c2)CC1 [Dovitinib] (first compound 2 µM, partner dose 0.5 µM) | 92%
NC(=O)c1ccc(N(C(N)=O)c2c(F)cccc2F)nc1-c1ccc(F)cc1F + CCN(CC)CCNC(=O)c1c(C)[nH]c(/C=C2\C(=O)Nc3ccc(F)cc32)c1C [sunitinib] (first compound 2 µM, partner dose 2 µM) | 55.3%
Cc1ccc(NC(=O)c2cccc(N(C)C)c2)cc1NC(=O)c1ccc(O)cc1 + O=C(Nc1ccccc1)c1cc([N+](=O)[O-])ccc1Cl [GW9662] (first compound 10 µM, partner dose 10 µM) | 97.7%
CCCCCCCCc1ccc(CCC(N)(CO)CO)cc1 [fingolimod] + Oc1cc(-c2nc(-c3ccccc3)[nH]c2-c2ccncc2)ccc1Cl [L779450] (first compound 10 µM, partner dose 1 µM) | 9.28%
NC(=O)c1ccc(N(C(N)=O)c2c(F)cccc2F)nc1-c1ccc(F)cc1F + N#Cc1c(O)c2c(-c3ccc(-c4ccccc4O)cc3)csc2[nH]c1=O [A769662] (first compound 2 µM, partner dose 10 µM) | 91.7%
CCCCCCCCc1ccc(CCC(N)(CO)CO)cc1 [fingolimod] + CCCCCCCCCCCC1=C(O)C(=O)C=C(O)C1=O [Embelin] (first compound 10 µM, partner dose 6 µM) | 32.7%
CCc1ccc(CCOc2ccc(CC3SC(=O)NC3=O)cc2)nc1 (configuration not stated) [pioglitazone] + Cn1cc(/C=C2\C(=O)Nc3cccnc32)c2ccccc21 [GW441756] (first compound 10 µM, partner dose 2 µM) | 83.9%
NC(=O)c1ccc(N(C(N)=O)c2c(F)cccc2F)nc1-c1ccc(F)cc1F + C=CCNC1=C2C[C@@H](C)C[C@H](OC)[C@H](O)[C@@H](C)/C=C(\C)[C@H](OC(N)=O)[C@@H](OC)/C=C\C=C(/C)C(=O)NC(=CC1=O)C2=O [Tanespimycin] (first compound 2 µM, partner dose 0.01 µM) | 83.6%
NC(=O)c1ccc(N(C(N)=O)c2c(F)cccc2F)nc1-c1ccc(F)cc1F + COc1ccc(C2=N[C@@H](c3ccc(Cl)cc3)[C@@H](c3ccc(Cl)cc3)N2C(=O)N2CCNC(=O)C2)c(OC(C)C)c1 [Nutlin-3] (first compound 2 µM, partner dose 0.5 µM) | 91%
NC(=O)c1ccc(N(C(N)=O)c2c(F)cccc2F)nc1-c1ccc(F)cc1F + OCc1c[nH]c2ccccc12 [Indole-3-carbinol] (first compound 2 µM, partner dose 4 µM) | 106%
NC(=O)c1ccc(N(C(N)=O)c2c(F)cccc2F)nc1-c1ccc(F)cc1F + CS(=O)(=O)CCNCc1ccc(-c2ccc3ncnc(Nc4ccc(OCc5cccc(F)c5)c(Cl)c4)c3c2)o1 [lapatinib] (first compound 2 µM, partner dose 4 µM) | 102%
NC(=O)c1ccc(N(C(N)=O)c2c(F)cccc2F)nc1-c1ccc(F)cc1F + COc1ccc(-c2ccc3c(N4CCOCC4)nc(N4C[C@@H](C)O[C@@H](C)C4)nc3n2)cc1CO [KU0063794] (first compound 2 µM, partner dose 0.1 µM) | 107%
COc1cc2c(Oc3ccc4[nH]c(C)cc4c3F)ncnc2cc1OCCCN1CCCC1 [cediranib] + CC(C)CCN1c2nc(Nc3cc(F)c(O)c(F)c3)ncc2N(C)C(=O)C1C [BID1870] (first compound 2 µM, partner dose 1 µM) | 80.5%
CCCCCCCCc1ccc(CCC(N)(CO)CO)cc1 [fingolimod] + CNC(=O)c1cc(Oc2ccc(NC(=O)Nc3ccc(Cl)c(C(F)(F)F)c3)cc2)ccn1 [sorafenib] (first compound 10 µM, partner dose 2 µM) | 4.12%
CC(C)(C)c1cnc(CSc2cnc(NC(=O)C3CCNCC3)s2)o1 + COC(=O)c1sccc1S(=O)(=O)Nc1ccc(Nc2ccccc2)cc1OC [GSK0660] (first compound 0.05 µM, partner dose 5 µM) | 60.2%
CCCCCCCCc1ccc(CCC(N)(CO)CO)cc1 [fingolimod] + O=S(=O)(c1ccccc1)N(CC(F)(F)F)c1ccc(C(O)(C(F)(F)F)C(F)(F)F)cc1 [T0901317] (first compound 10 µM, partner dose 7 µM) | 32.2%
Cc1ccc(NC(=O)c2cccc(N(C)C)c2)cc1NC(=O)c1ccc(O)cc1 + O=S(=O)(c1ccccc1)N(CC(F)(F)F)c1ccc(C(O)(C(F)(F)F)C(F)(F)F)cc1 [T0901317] (first compound 10 µM, partner dose 7 µM) | 87.4%
CN(NC(=O)CC(=O)NN(C)C(=S)c1ccccc1)C(=S)c1ccccc1 + Cn1cc(/C=C2\C(=O)Nc3cccnc32)c2ccccc21 [GW441756] (first compound 0.03 µM, partner dose 2 µM) | 104%
CCCCCCCCc1ccc(CCC(N)(CO)CO)cc1 [fingolimod] + C[C@@H](Oc1cc(-c2cnn(C3CCNCC3)c2)cnc1N)c1c(Cl)ccc(F)c1Cl [Crizotinib] (first compound 10 µM, partner dose 1 µM) | 7.97%
CCCCCCCCc1ccc(CCC(N)(CO)CO)cc1 [fingolimod] + Cn1c(=O)n(-c2ccc(C(C)(C)C#N)cc2)c2c3cc(-c4cnc5ccccc5c4)ccc3ncc21 [NVP-BEZ235] (first compound 10 µM, partner dose 0.02 µM) | 3.47%
COc1cc2c(Oc3ccc4[nH]c(C)cc4c3F)ncnc2cc1OCCCN1CCCC1 [cediranib] + COc1ccc(-c2ccc3c(N4CCOCC4)nc(N4C[C@@H](C)O[C@@H](C)C4)nc3n2)cc1CO [KU0063794] (first compound 2 µM, partner dose 0.1 µM) | 99.1%
NC(=O)c1ccc(N(C(N)=O)c2c(F)cccc2F)nc1-c1ccc(F)cc1F + CCCCCCCCc1ccc(CCC(N)(CO)CO)cc1 [fingolimod] (first compound 2 µM, partner dose 10 µM) | 6.27%
